{"source": "the supplement of paper PMC3334620", "note": "The full ranking holds about 33,000 sequences; the median of “E-score (-0.5 to 0.5)” is about -0.017, and the highest 2% start at about 0.3. Some of the results follow."}
{"biological_target": "T1, Sut1 (UniProt P53032)", "T1 sequence": "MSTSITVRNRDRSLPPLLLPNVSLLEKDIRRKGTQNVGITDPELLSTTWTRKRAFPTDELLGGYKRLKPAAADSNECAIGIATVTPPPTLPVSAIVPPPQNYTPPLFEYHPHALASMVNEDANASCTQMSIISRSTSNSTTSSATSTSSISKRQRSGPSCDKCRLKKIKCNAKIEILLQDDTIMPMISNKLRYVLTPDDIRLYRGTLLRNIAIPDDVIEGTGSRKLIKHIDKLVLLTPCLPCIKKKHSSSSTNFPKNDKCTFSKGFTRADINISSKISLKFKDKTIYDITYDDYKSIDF", "assay": "PBM E-score (8-mer binding enrichment) (E-score (-0.5 to 0.5)); higher = stronger / more preferred TF binding; most listed sequences are background and not binding sites", "details": "protein concentration: 200 nM; construct: GST-full length", "procedure,_shortened": "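The E-score, a modified Wilcoxon-Mann-Whitney statistic, was computed by the Universal PBM Analysis Suite for every ungapped eight-base word pooled with its reverse complement. Scans behind it were normalised with masliner after bound GST-tagged yeast transcription factors were detected with fluorescent anti-GST. The proteins, at about 100-200 nM, had been applied to universal all-10-mer Agilent arrays made double-stranded by primer extension.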"}
{"sequence": "TAAGCGTA", "PBM E-score": -0.0359}
{"sequence": "GCCCAGTA", "PBM E-score": -0.0398}
{"sequence": "TACCCTCA", "PBM E-score": -0.132}
{"sequence": "AGGGGCTC", "PBM E-score": -0.263}
{"sequence": "CCAGCGCA", "PBM E-score": -0.12}
{"sequence": "GTTACAAA", "PBM E-score": 0.197}
{"sequence": "AAGGTACC", "PBM E-score": -0.104}
{"sequence": "CCTCTTCC", "PBM E-score": -0.334}
{"sequence": "ACTTGTAC", "PBM E-score": 0.0562}
{"sequence": "ATGGTAGC", "PBM E-score": -0.0733}
{"sequence": "GACGAACC", "PBM E-score": -0.0142}
{"sequence": "CTTAGACC", "PBM E-score": 0.0409}
{"sequence": "ACAGTGAG", "PBM E-score": -0.144}
{"sequence": "ACCGGCAC", "PBM E-score": 0.0333}
{"sequence": "GCTCACTA", "PBM E-score": -0.0683}
{"sequence": "CCTTCCAC", "PBM E-score": -0.294}
{"sequence": "AATTACCT", "PBM E-score": 0.144}
{"sequence": "CTTAGCTC", "PBM E-score": -0.0237}
{"sequence": "GGGCATTA", "PBM E-score": -0.168}
{"sequence": "AAAATCTT", "PBM E-score": 0.156}
{"sequence": "AGAGGGAG", "PBM E-score": -0.315}
{"sequence": "ACGGGCTG", "PBM E-score": -0.223}
{"sequence": "AGTTAACG", "PBM E-score": 0.0439}
{"sequence": "GGCTAGCC", "PBM E-score": -0.376}
{"sequence": "TGACCCCA", "PBM E-score": -0.151}
{"sequence": "CAGTCTAA", "PBM E-score": 0.183}
{"sequence": "TCGGTAGA", "PBM E-score": 0.205}
{"sequence": "CAGGAAGG", "PBM E-score": -0.255}
{"sequence": "CTTCCATA", "PBM E-score": 0.00613}
{"sequence": "CAGGTAGA", "PBM E-score": -0.163}
{"sequence": "AGATGATG", "PBM E-score": 0.0132}
{"sequence": "ACCCCAGT", "PBM E-score": 0.013}
{"sequence": "GTCGTTTA", "PBM E-score": 0.0102}
{"sequence": "GGGGGGCA", "PBM E-score": -0.361}
{"sequence": "GGCCGTTA", "PBM E-score": 0.137}
{"sequence": "AAGTTCCG", "PBM E-score": 0.0622}
{"sequence": "GTGCAGGA", "PBM E-score": -0.23}
{"sequence": "AAAAATCG", "PBM E-score": 0.0928}
{"sequence": "AAGCTCCT", "PBM E-score": -0.112}
{"sequence": "AAACGGGA", "PBM E-score": 0.159}
{"sequence": "ACTTCTTA", "PBM E-score": 0.108}
{"sequence": "TACTGAGA", "PBM E-score": -0.055}
{"sequence": "GCCCCGAA", "PBM E-score": 0.184}
{"sequence": "CAGCTCTA", "PBM E-score": -0.0959}
{"sequence": "CTATGATA", "PBM E-score": 0.117}
{"sequence": "GGTTGGTA", "PBM E-score": 0.114}
{"sequence": "GCATCCCA", "PBM E-score": -0.301}
{"sequence": "AAAGCAGG", "PBM E-score": -0.00755}
{"sequence": "TGCCGGCA", "PBM E-score": -0.0265}
{"sequence": "CATGGGGG", "PBM E-score": -0.318}
{"sequence": "CAGCGCGA", "PBM E-score": -0.245}
{"sequence": "AGCGATCA", "PBM E-score": -0.184}
{"sequence": "GGAGTAAC", "PBM E-score": 0.258}
{"sequence": "GGTCTCTA", "PBM E-score": -0.0903}
{"sequence": "AGCATAGC", "PBM E-score": -0.167}
{"sequence": "CGCTACCG", "PBM E-score": -0.0888}
{"sequence": "CATTGCGG", "PBM E-score": -0.192}
{"sequence": "CTGTGTGA", "PBM E-score": -0.0279}
{"sequence": "AACGACCT", "PBM E-score": -0.0485}
{"sequence": "GCGTGTGA", "PBM E-score": -0.101}
{"sequence": "TTCATGAA", "PBM E-score": 0.00239}
{"sequence": "ACAACCTC", "PBM E-score": -0.202}
{"sequence": "ACCCGTAG", "PBM E-score": -0.285}
{"sequence": "CGCTTATC", "PBM E-score": -0.0345}
{"sequence": "CAGGGGCG", "PBM E-score": -0.346}
{"sequence": "ATCGCAAG", "PBM E-score": -0.161}
{"sequence": "CCAGTAAC", "PBM E-score": 0.072}
{"sequence": "AACGCCTC", "PBM E-score": -0.115}
{"sequence": "CTAAAGTA", "PBM E-score": 0.0339}
{"sequence": "GGTGTACA", "PBM E-score": -0.084}
{"sequence": "CTATATAG", "PBM E-score": 0.0328}
{"sequence": "AGCCTGCA", "PBM E-score": -0.0445}
{"sequence": "ATTGCCGA", "PBM E-score": -0.0492}
{"sequence": "AGAATGGA", "PBM E-score": 0.112}
{"sequence": "CTTCCCCA", "PBM E-score": -0.271}
{"sequence": "CCAATTTA", "PBM E-score": 0.226}
{"sequence": "TGTACGAA", "PBM E-score": 0.0891}
{"sequence": "GTTATATA", "PBM E-score": 0.286}
{"sequence": "CCGCGCGA", "PBM E-score": 0.0782}
{"sequence": "ATCAACTC", "PBM E-score": -0.0768}
{"sequence": "CTCGAGAC", "PBM E-score": -0.00181}
{"sequence": "AGTACGAT", "PBM E-score": 0.00058}
{"sequence": "CGGGGCGA", "PBM E-score": 0.00428}
{"sequence": "AACCCAAG", "PBM E-score": 0.0241}
{"sequence": "CAGTAGGC", "PBM E-score": -0.056}
{"sequence": "AAGCGGCA", "PBM E-score": -0.105}
{"sequence": "GAAGCAAA", "PBM E-score": 0.0636}
{"sequence": "AAGTTGCA", "PBM E-score": -0.0738}
{"sequence": "CTTCCGAC", "PBM E-score": 0.173}
{"sequence": "GGGGCCCC", "PBM E-score": 0.0144}
{"sequence": "GTTTCGTA", "PBM E-score": 0.0481}
{"sequence": "ACGCCAGT", "PBM E-score": -0.148}
{"sequence": "ACCAACTC", "PBM E-score": -0.00536}
{"sequence": "CCAGAAAC", "PBM E-score": -0.0561}
{"sequence": "AGTCTAAA", "PBM E-score": 0.121}
{"sequence": "CTTATACC", "PBM E-score": 0.0712}
{"sequence": "GTACGTTA", "PBM E-score": 0.0266}
{"sequence": "ACCTCCGT", "PBM E-score": 0.165}
{"sequence": "CACTTAAC", "PBM E-score": 0.156}
{"sequence": "CACGGCAC", "PBM E-score": 0.00649}
{"sequence": "GGGTCTTA", "PBM E-score": -0.168}
{"sequence": "ACAATCAG", "PBM E-score": -0.0158}
{"sequence": "CTTGTGGC", "PBM E-score": -0.164}
{"sequence": "ATTATAAT", "PBM E-score": 0.378}
{"sequence": "TAGATTAA", "PBM E-score": 0.292}
{"sequence": "AGACTCTA", "PBM E-score": -0.0408}
{"sequence": "CCTTCGAA", "PBM E-score": 0.0651}
{"sequence": "CGAGCGTC", "PBM E-score": -0.241}
{"sequence": "CCCGGCTC", "PBM E-score": -0.156}
{"sequence": "ACACTAAT", "PBM E-score": 0.103}
{"sequence": "CGGCTGTC", "PBM E-score": -0.14}
{"sequence": "CCCCTGTA", "PBM E-score": -0.184}
{"sequence": "AACAATCC", "PBM E-score": 0.183}
{"sequence": "CAATCAAA", "PBM E-score": 0.0492}
{"sequence": "CCTTGTAA", "PBM E-score": 0.165}
{"sequence": "ATTATTGC", "PBM E-score": 0.214}
{"sequence": "CCGCCCGC", "PBM E-score": -0.158}
{"sequence": "GATCAGAC", "PBM E-score": -0.211}
{"sequence": "AAGCCTCG", "PBM E-score": -0.0281}
{"sequence": "ACACCATG", "PBM E-score": -0.203}
{"sequence": "CCAAACAA", "PBM E-score": 0.122}
{"sequence": "AGTTGTGA", "PBM E-score": 0.087}
{"sequence": "AATACGGC", "PBM E-score": -0.0196}
{"sequence": "ACGAATAC", "PBM E-score": 0.141}
{"sequence": "GGAAACAA", "PBM E-score": 0.0824}
{"sequence": "ATTCCTTC", "PBM E-score": 0.0876}
{"sequence": "GAGATATA", "PBM E-score": 0.162}
{"sequence": "GCAGGAGC", "PBM E-score": -0.334}
{"sequence": "CACGTCGC", "PBM E-score": -0.173}
{"sequence": "ATCCACAA", "PBM E-score": -0.0307}
{"sequence": "ACGGCAGT", "PBM E-score": -0.0735}
{"sequence": "CACACTCG", "PBM E-score": -0.121}
{"sequence": "CAGCTGAC", "PBM E-score": 0.0633}
{"sequence": "CTATCGGC", "PBM E-score": -0.13}
{"sequence": "CGTTGTGC", "PBM E-score": -0.185}
{"sequence": "AAGGCGAC", "PBM E-score": -0.202}
{"sequence": "AGCGCTCG", "PBM E-score": -0.0764}
{"sequence": "ACTCTGGG", "PBM E-score": -0.114}
{"sequence": "TCTGACCA", "PBM E-score": 0.053}
{"sequence": "CCTCGCAC", "PBM E-score": -0.132}
{"sequence": "ACAACGAT", "PBM E-score": 0.113}
{"sequence": "CCCTCGGA", "PBM E-score": 0.272}
{"sequence": "CAGGCCGA", "PBM E-score": -0.0634}
{"sequence": "CGACCCAG", "PBM E-score": -0.133}
{"sequence": "CTTCTCAC", "PBM E-score": 0.0892}
{"sequence": "AGCCGGCG", "PBM E-score": -0.0364}
{"sequence": "GTAGAGCA", "PBM E-score": -0.146}
{"sequence": "TCCGTAAA", "PBM E-score": 0.297}
{"sequence": "ACACGACA", "PBM E-score": 0.161}
{"sequence": "CGTAGCAC", "PBM E-score": 0.0497}
{"sequence": "AAACGCTC", "PBM E-score": -0.0412}
{"sequence": "AAATCGAC", "PBM E-score": -0.0717}
{"sequence": "TCGATGCA", "PBM E-score": -0.235}
{"sequence": "AATTGGGT", "PBM E-score": 0.232}
{"sequence": "GAGAGATC", "PBM E-score": -0.189}
{"sequence": "CTGACGTC", "PBM E-score": -0.112}
{"sequence": "ATCGCCCA", "PBM E-score": -0.242}
{"sequence": "TGATACCA", "PBM E-score": -0.0561}
{"sequence": "AGACAAGC", "PBM E-score": -0.0684}
{"sequence": "CTTCGGAC", "PBM E-score": 0.405}
{"sequence": "ACAACCAC", "PBM E-score": 0.169}
{"sequence": "CCACCGGA", "PBM E-score": 0.362}
{"sequence": "GCGGCGAC", "PBM E-score": -0.0515}
{"sequence": "ATCATTGC", "PBM E-score": -0.0909}
{"sequence": "ATGGATTA", "PBM E-score": -0.139}
{"sequence": "ACATGGCT", "PBM E-score": -0.139}
{"sequence": "AGTTGGTG", "PBM E-score": 0.00404}
{"sequence": "CCTCATAA", "PBM E-score": -0.0996}
{"sequence": "AATCGTCC", "PBM E-score": -0.0212}
{"sequence": "CCTGTCCA", "PBM E-score": -0.264}
{"sequence": "CCAGTGAG", "PBM E-score": -0.0296}
{"sequence": "ACAAGGCT", "PBM E-score": -0.269}
